Test results as given in the supplement of paper PMC3334620.
Whole data set: some 33,000 sequences, median “E-score (-0.5 to 0.5)” near -0.017, cut for the highest 2% near 0.3. Some of the results follow.

target: T1, Sut1 (UniProt P53032); assay: PBM E-score (8-mer binding enrichment) (E-score (-0.5 to 0.5)); higher = stronger / more preferred TF binding; most listed sequences are background and not binding sites; details: protein concentration: 200 nM; construct: GST-full length
T1 sequence: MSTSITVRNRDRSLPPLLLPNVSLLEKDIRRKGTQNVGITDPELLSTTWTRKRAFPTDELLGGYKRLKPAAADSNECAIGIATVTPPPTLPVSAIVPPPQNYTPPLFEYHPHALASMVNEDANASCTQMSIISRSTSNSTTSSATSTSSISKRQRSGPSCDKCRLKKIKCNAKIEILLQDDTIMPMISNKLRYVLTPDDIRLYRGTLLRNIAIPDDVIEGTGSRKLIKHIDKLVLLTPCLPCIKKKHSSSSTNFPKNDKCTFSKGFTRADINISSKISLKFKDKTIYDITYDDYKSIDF
Procedure, shortened: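 Masliner-normalised scans of fluorescent anti-GST signal were the basis for scoring. That signal came from GST-tagged yeast transcription factors applied at about 100-200 nM to double-stranded universal all-10-mer Agilent arrays on fresh or once-stripped slides. Each ungapped eight-base word, pooled with its reverse complement, received an E-score from the Universal PBM Analysis Suite.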

| Sequence | PBM E-score |
| --- | --- |
| ACTTGTTC | -0.0307 |
| GCGAGACC | -0.139 |
| AATGAATT | 0.23 |
| GAAGAACC | -0.0162 |
| AGCACGAG | -0.0744 |
| GGTATCAA | 0.0679 |
| ATGTCGCG | -0.0218 |
| AGGGATCC | -0.224 |
| CGAGAACG | 0.0969 |
| CGGAAAAG | 0.245 |
| AAGAGAGT | 0.102 |
| CCACAACC | 0.0413 |
| CTAGAGCC | -0.0856 |
| AACCAGCA | -0.0548 |
| ATTTTTGC | 0.287 |
| GCGTGAGA | -0.0629 |
| ATTGTCGG | 0.115 |
| AACCTTTC | -0.0172 |
| GCGATTAC | -0.0788 |
| CATCCTGC | -0.211 |
| CCACTCAC | -0.145 |
| GACCGCGA | -0.169 |
| CACTCTCC | 0.0307 |
| ACTGGTGA | -0.123 |
| CCCCCCCA | -0.426 |

| Sequence | PBM E-score |
| --- | --- |
| GATGCATA | 0.00998 |
| CCTTAATA | 0.0272 |
| GGTACAGA | -0.0604 |
| CAAGATAG | -0.0215 |
| ATGAGGAA | 0.0562 |
| AAGCGCGG | -0.0496 |
| CCAAGCGA | -0.176 |
| GCAAGCCC | -0.036 |
| GTATGAGA | 0.101 |
| ATAGCAAA | 0.12 |
| CATGCGGC | -0.216 |
| CATGGTCC | -0.193 |
| ATACTGCG | -0.0624 |
| AGTCACAA | -0.0527 |
| CCCGACAC | -0.193 |
| ATCCCATA | -0.00572 |
| CAAGTTGG | 0.0113 |
| AGGGGTAC | -0.279 |
| CTATTCAA | 0.125 |
| GTGACACA | 0.0294 |
| GGGAGTAA | 0.0687 |
| ACCGGGAA | 0.145 |
| AGCACGCG | 0.0217 |
| ACTCATTG | -0.148 |
| AGCTTGGC | -0.0583 |

| Sequence | PBM E-score |
| --- | --- |
| CCGCTAAG | -0.0197 |
| CGGGCCCG | 0.316 |
| AGCTCCGA | 0.464 |
| CAGGCCAC | -0.206 |
| AGTAGATG | 0.129 |
| CAGACGCG | -0.184 |
| GCCTTTGA | -0.163 |
| ACTTAGGA | -0.17 |
| GTAGTTAA | 0.17 |
| GGGGCCAA | -0.233 |
| AGAGCTGG | -0.0414 |
| GGAGCCCA | -0.168 |
| GACTGTAA | -0.0121 |
| AGCCTTCC | -0.158 |
| ATCGGTTC | 0.113 |
| TACGGCTA | -0.0196 |
| CAGATGAG | -0.0746 |
| AACGGCTT | -0.19 |
| CTCATGTC | -0.0587 |
| GCAGGTGA | -0.306 |
| AGCCATGG | -0.264 |
| TAAACCGA | 0.091 |
| CGTGGGGA | -0.202 |
| GTTCGTCA | -0.11 |
| AGCCCTGC | -0.0685 |

| Sequence | PBM E-score |
| --- | --- |
| AGGGCCAT | -0.139 |
| CCGATCAC | 0.203 |
| CTAGGGCC | -0.239 |
| GCTAAGAC | -0.277 |
| ATAAACGC | 0.0289 |
| CCGTTGGC | -0.137 |
| CAAGCTCG | 0.00718 |
| CTGTATCC | 0.0447 |
| ATACCCTA | 0.0827 |
| CGTTGCAA | -0.00253 |
| AATCTCTA | 0.0586 |
| CACCGCCG | -0.182 |
| CAATATGA | 0.181 |
| AGTAGACC | -0.172 |
| CTGCCTGC | -0.14 |
| CACCCCTA | -0.293 |
| CCGGAGTC | 0.484 |
| GCTATAGA | -0.0561 |
| CGGACCTC | 0.411 |
| CGCTTGGC | -0.388 |
| CGAGACTA | 0.115 |
| GATGCGGC | -0.172 |
| AGTTTAAC | 0.0735 |
| GCAGGGGA | -0.296 |
| CGGAACGC | 0.0642 |

| Sequence | PBM E-score |
| --- | --- |
| AGCCTGGC | -0.173 |
| GTAGCCCA | -0.208 |
| TCGATGAA | 0.177 |
| ATCATCAA | 0.0572 |
| ATTCTCTC | 4e-05 |
| AAGTGAGA | -0.086 |
| CGCTCGTA | -0.145 |
| TAACTGCA | 0.0867 |
| CTACAATA | 0.181 |
| TAGCGGGA | -0.164 |
| GCTACAAC | 0.0937 |
| ATTCAACC | 0.00502 |
| AGTCGCTG | -0.202 |
| TAAGTGGA | 0.0529 |
| CCGGAAGC | 0.208 |
| ATCTCCAA | 0.158 |
| ACAGTAAG | 0.0205 |
| GTCCCTCA | -0.272 |
| CGGTCTCA | 0.00484 |
| GTCAAGCA | -0.343 |
| AGTTAAAT | 0.225 |
| GGGCATGA | -0.273 |
| CTATATTC | 0.0472 |
| ACGAGGCT | -0.025 |
| CTAATGGA | 0.0635 |

| Sequence | PBM E-score |
| --- | --- |
| CCCCGATC | -0.0506 |
| TTTCAAAA | 0.282 |
| AACTGGTA | 0.0222 |
| TAGGGGGA | -0.131 |
| GTTCCGAA | 0.267 |
| AGTACACT | -0.092 |
| TCAGCAGA | -0.153 |
| GTGTTTTA | 0.122 |
| CCTCCGGA | 0.374 |
| AACGAGGT | -0.114 |
| ATTAACCA | 0.102 |
| AACACCAG | -0.074 |
| CCGAGCAG | -0.0299 |
| AGGGGGAC | -0.308 |
| ACCGCTTC | -0.0583 |
| CCAGGTGA | -0.216 |
| ATGGTATG | 0.00799 |
| GTATCTTA | 0.216 |
| CCAAATAA | 0.0249 |
| AAATCAAG | 0.144 |
| ACATGACA | 0.165 |
| CCAATCTC | 0.131 |
| ACCTAACC | 0.04 |
| TCGGCAGA | -0.00987 |
| ACCCAACC | 0.067 |

| Sequence | PBM E-score |
| --- | --- |
| AAGAACTT | 0.183 |
| CTTTCTCA | 0.208 |
| GAAAAAAC | 0.268 |
| ATAATGAT | 0.273 |
| CTTGATGC | -0.0328 |
| AGATGGAG | -0.143 |
| AGGTGCCA | -0.00648 |
| CACCTGGC | -0.206 |
| GAGTAGGC | 0.0511 |
| GCGGTAGC | -0.146 |
| ATACCACA | 0.0667 |
| ATACGGTA | 0.168 |
| CGAGACCC | -0.13 |
| CGTGTTCC | 0.113 |
| CTTCGTTC | -0.00724 |
| GCGTCTCC | -0.033 |
| GAGACGAA | -0.0447 |
| ATGTGATC | 0.144 |
| CGTATAAA | 0.214 |
| GCCTATCA | 0.042 |
| ATATAGGA | 0.0279 |
| ATCACTTG | -0.0418 |
